Legend:
[1] = molecular target: T1, recombinant human CD47 protein (human, UniProt Q08722 fragment); test: ELISA: recombinant human CD47 coated on the plate, chemiluminescence
T1 construct: Bought (Cedarlane Cat. No. 12283-H08H-200); also called human recombinant CD47 protein; CD47 recombinant protein

[2] = molecular target: T2, human CD47 on cells (HEK293T cells, human blood cells, primary human T cells) (human, UniProt Q08722); test: flow cytometry on HEK293T parental and HEK293T-CD47KO cells
T2 construct: Endogenous CD47 of human cells; For blood cells and T cells it is inferred from the specificity of the anti-CD47 module

[3] = molecular target: human Dopamine Receptor D2 expressed on transfected HEK293 cells (human, UniProt P14416 1-443); test: cell-based or functional assay
[4] = molecular target: T2, human CD47 on cells (HEK293T cells, …); test: flow cytometry on primary human T cells
[5] = molecular target: T3, human Dopamine Receptor D2 presented on proteoliposomes (human, UniProt P14416 1-443, limits assumed); test: ELISA: D2 proteoliposomes coated on the plate, anti-human-Fc-HRP, chemiluminescence
T3 construct: also called D2 proteoliposomes; human D2 presenting proteoliposomes
Experimental: Plates were covered and left at 4° C. overnight. The next day, plates were washed once with PBS and blocked with blocking buffer for 1 hour at room temperature. […] After incubation, plates were washed three times with washing buffer. Plates were incubated with anti-human-Fc-HRP (Sigma-Aldrich, Cat. No. AP113P) diluted at 1:5000 for 1 hour at room temperature, then washed three times with PBS-T washing buffer. The signal was developed with SuperSignal™ ELISA Pico Chemiluminescent Substrate (Thermofisher, Cat. No. 37069). The plates were read on a SpectraMax™ i3x Multi-Mode Microplate Reader (Molecular Devices).

B1: KC015 (Fc fusion)
chain: QVQLQESGGGLVQPGGSLRLSCAASRFDFSVNDIRWYRQAPGNERELVARITGGGRTDYADSVKGRFTISRDNAKNTVYLQMNNLKPEDTAVYYCWGRGYWGQGTQVTVSS[gap - human IgG1 Fc]
notes: May comprise a His-tag or not
EC50 (read off the curve) [1]: ~60 pM

B2: KC016 (Fc fusion)
chain: DVQLVESGGGSVQAGGSLRLSCAASGSTDSIEYMTWFRQAPGKAREGVAALYTHTGNTYYTDSVKGRFTISQDKAKNMAYLRMDSVKSEDTAIYTCGATRKYVPVRFALDQSSYDYWGQGTQVTVSS[gap - human IgG1 Fc]
notes: Anti-HEWL VHH fused with human IgG1 hinge-CH2-CH3; May comprise a His-tag or not; also called negative control
binding result [1]: no binding (tested: about 40 nM)
binding result [2]: no binding (tested: not printed)

B3: KC014 (Fc fusion)
chain: QVQLLESGGGLVQPGGSLRLSCAASGDRITNKDMGWVRQAPGKGLEWVSAIAKNNGSTYYADSVKGRFTISRDNSKNTLYLQMNSLRAEDTAVYYCAGLTHRGASKFNYWGQGTLVTVSS[gap - human IgG1 Fc]
EC50, GPCR BRET assay, biosensor Gαz, first column [3]: 7.19 pM
EC50, GPCR BRET assay, biosensor Gαz, second column [3]: 6.91 pM

B4: KC012 (Fc fusion)
chain: QVQLQESGGGLVHPGGSLRLSCAASGLTFSQRAMSWVRQAPGKGLEWISDIKSTGETSYADSVKGRFTISRDNARNTVYLQMNSLKPEDTAVYYCALGLWKILPSVRGRGTQVTVSS[gap - human IgG1 Fc]
EC50, GPCR BRET assay, biosensor Gαz, second column [3]: 7 pM

B5: KC040 (Fc fusion)
chain: QVQLQESGGGLVQAGGSLRLSCAASEIIFSITAMNWYRQAPGKQRELVAGISSSGKITYQDSVKGRFTISKDNAKNTLYLQMNSLKPEDTAVYYCNTWAGARDAIWGQGTQVTVSS[gap - human IgG1 Fc]APAPAPAPAPKADVQLVESGGGSVQAGGSLRLSCAASGSTDSIEYMTWFRQAPGKAREGVAALYTHTGNTYYTDSVKGRFTISQDKAKNMAYLRMDSVKSEDTAIYTCGATRKYVPVRFALDQSSYDYWGQGTQVTVSSGGGGSGGGGSGGGGSQVQLQESGGGLVQPGGSLRLSCAASRFDFSVNDIRWYRQAPGNERELVARITGGGRTDYADSVKGRFTISRDNAKNTVYLQMNNLKPEDTAVYYCWGRGYWGQGTQVTVSS
notes: KC001 VHH, human IgG1 hinge-CH2-CH3, rigid linker, anti-HEWL VHH, flexible linker, KC010 VHH; May comprise a His-tag or not; also called (DR2)
binding result [4]: binds

B6: KC039 (Fc fusion)
VHH-hinge-CH2-CH3-linker-VHH-linker-VHH polypeptide chain: QVQLVESGGGSVQAGGSLRLSCAASGSTDSIEYMTWFRQAPGKAREGVAALYTHTGNTYYTDSVKGRFTISQDKAKNMAYLRMDSVKSEDTAIYTCGATRKYVPVRFALDQSSYDYWGQGTQVTVSS[gap - human IgG1 Fc]APAPAPAPAPKAQVQLVESGGGSVQAGGSLRLSCAASGSTDSIEYMTWFRQAPGKAREGVAALYTHTGNTYYTDSVKGRFTISQDKAKNMAYLRMDSVKSEDTAIYTCGATRKYVPVRFALDQSSYDYWGQGTQVTVSSGGGGSGGGGSGGGGSQVQLVESGGGSVQAGGSLRLSCAASGSTDSIEYMTWFRQAPGKAREGVAALYTHTGNTYYTDSVKGRFTISQDKAKNMAYLRMDSVKSEDTAIYTCGATRKYVPVRFALDQSSYDYWGQGTQVTVSS
notes: also called negative control; (HEWL)
binding result [2]: no binding (tested: not printed)

B7: KC013 (Fc fusion)
chain: QVQLQESGGGLVQAGGSLRLSCAASEIIFSITAMNWYRQAPGKQRELVAGISSSGKITYQDSVKGRFTISKDNAKNTLYLQMNSLKPEDTAVYYCNTWAGARDAIWGQGTQVTVSS[gap - human IgG1 Fc]
notes: VHH KC001 fused with human IgG1 hinge-CH2-CH3; May comprise a His-tag or not
EC50, GPCR BRET assay, biosensor Gαz, first column [3]: 6.57 pM
EC50, GPCR BRET assay, biosensor Gαz, second column [3]: 6.04 pM
EC50 (read off the curve) [5]: ~100 pM

B8: KC011 (Fc fusion)
chain: QVQLQESGGGLAPPGGSLRLSCAASGFTFSRHAMSWVRQAPGKGLEWVSDIRSGDGGDGGTSYADSVKGRFTISRDNAKNTLYLQMNSLKPEDTAVYYCALGLWKILPSTRGRGTQVTVSS[gap - human IgG1 Fc]
EC50, GPCR BRET assay, biosensor Gαz, second column [3]: 7.04 pM

Source: US20250313638A1 (KISOJI BIOTECHNOLOGY, published 2025)
